Experimental data: PubChem BioAssay AID1745845 (National Center for Advancing Translational Sciences (NCATS), 2022)
The campaign covered roughly 360,000 compounds. About 2,600 (0.72%) were called active. This list was built around the results that the source calls inconclusive (neither active nor inactive); the mix of calls is not that of the screen. Calls come from the whole dose curve; as a rule, active = well fitted inhibition curve with a large enough effect; inconclusive = small, poorly fitted or top-dose-only effect; inactive = no such curve, though single readings can be large or run the other way. Where the call is inconclusive, the potency comes from a doubtful curve fit.

Assay: Primary qHTS for Inhibitors of ATXN expression; note: nearly all actives have a fitted effect of over 55% in size
Conditions: HEK-293 ATXN2-luciferase reporter, luminescence, 24 h; activity change, negative = inhibition: at 57 µM (top of the series)
Procedure, shortened: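 ATXN2-luciferase reporter cells (luciferase flanked by upstream and downstream ATXN2 gene portions) were treated 24 h at 37 °C with compounds at up to 57 uM. SteadyGlo luminescence gave expression; GF-AFC fluorescence gave viability.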
% is set by controls: 0 for no effect and ±100 for the full control effect; potency is the fitted concentration of half-maximal effect; tags give direction and shape of the fitted curve.

Row | Compound | Potency | activity change, negative = inhibition
1 | COC(=O)c1ccc(Cn2c(SCC(=O)NCc3ccccc3)nc3ccccc32)cc1 | inconclusive: 35.5 µM [inhibitor, single point] | –
2 | COc1ccc(C2CC(c3cccc(OC)c3)=NN2c2ccc(S(N)(=O)=O)cc2)cc1 (stereo not given) | inconclusive: 22.4 µM [inhibitor, single point] | –
3 | COc1ccc([C@H]2CC(=O)C=C(c3ccnc4ccc(Cl)cc34)C2)cc1 | inactive | –
4 | CN(C)c1ccc(C(=O)N/N=C/c2ccccn2)cc1 | inactive | –
5 | CCCCCCN1C=CC(=C2C(=O)c3ccccc3C2=O)C=C1 | inconclusive: 4.74 µM [inhibitor, single point] | –
6 | CCOC(=O)c1sc(N2C(=O)C(O)=C(C(=O)c3ccc(C)o3)C2c2ccc(OC)c(OC)c2)nc1C (stereo not given) | inactive | –
7 | CCCn1c(C(CO)Nc2nc(-c3cccc(Br)c3)cs2)nc2ccccc21 (stereo not given) | inconclusive: 39.8 µM [inhibitor, single point] | –
8 | CCOC(=O)c1ccccc1NC(=O)CSc1cc(C)[nH]c(=O)n1 | inactive | –
9 | Cc1ccc(-n2nc3c(N4CCC(C(=O)NCCc5ccccc5C)CC4)nnc(C)c3c2C)cc1 | inconclusive: 22.4 µM [inhibitor, partial curve, poor fit] | –
10 | Cc1cc(SCC(=O)N/N=C/c2ccc(O)cc2O)nc2ccccc12 | active: 12.6 µM | –
11 | Oc1ccccc1C1CC(c2cccs2)=NC(c2ccc(Cl)cc2)N1 (stereo not given) | inconclusive: 6.7 µM [inhibitor, partial curve, poor fit] | –
12 | O=C(Nc1ccccc1C(=O)Nc1nnc(C(F)(F)F)s1)c1ccccc1Cl | active: 12.6 µM | –
13 | CCN1CCN(c2ccc(S(=O)(=O)N3CCCCC3)cc2NC(=O)/C=C/c2ccc(Cl)cc2)CC1 | inconclusive: 39.8 µM [inhibitor, single point] | –
14 | CN1/C(=C/c2cc[n+](C)c3ccccc23)C=Cc2ccccc21 | active: 3.77 µM | –
15 | COc1ccccc1N1CCN(C(=O)c2sc3nc(C)nc(N4CCN(c5ccccn5)CC4)c3c2C)CC1 | inconclusive: 15 µM [inhibitor, partial curve, poor fit] | –
16 | O=C1c2ccccc2C(=Nc2ccccc2)C1c1cccc(Br)c1 (stereo not given) | inconclusive: 39.8 µM [inhibitor, single point] | –
17 | Cc1ccc(N2CC(C(=O)Nc3ccc(C)c(S(=O)(=O)N(C)C)c3)CC2=O)cc1 (stereo not given) | inconclusive: 2.67 µM [inhibitor, single point] | –
18 | Cc1cccc2c1N(CCCOc1ccc(C(C)(C)C)cc1)C(=O)C2=O | inconclusive: 39.8 µM [inhibitor, single point] | –
19 | CCn1c(C(=O)N2CCCC(C(=O)NCCCc3ccccc3)C2)cc2sccc21 (stereo not given) | inactive | –
20 | O=C1NC[C@H](Cc2ccccc2)N(C[C@H]2CCCN2C[C@H](Cc2ccccc2)N2C[C@H](Cc3ccccc3)N(CC3CCCCC3)C(=O)C2=O)C1=O | inconclusive: 39.8 µM [inhibitor, single point] | –
21 | CCOC(=O)[C@]12CCC=C1N(Cc1ccc(Cl)cc1Cl)C(=O)[C@H](CC(=O)NCc1ccccc1)C2 | inconclusive: 39.8 µM [inhibitor, single point] | –
22 | Cc1cccc(CNC(=O)c2sc3ncnc(N(C)C4CCCCC4)c3c2C)c1 | inconclusive: 20 µM [inhibitor, single point] | –

Row | Compound | Potency | activity change, negative = inhibition
23 | CNC(=O)C[C@@H]1C(=O)N(CCc2ccccc2)CC1(C)C | inactive | –
24 | CC(C)C(=O)N1CCN(c2ccc(NC(=O)COc3ccccc3[N+](=O)[O-])cc2)CC1 | inconclusive: 25.1 µM [inhibitor, single point] | –
25 | CC(=NNC(=O)c1ccncc1)c1ccc(O)cc1O | active: 14.1 µM | –
26 | CCCCCN1C(C(=O)c2ccccc2)=C(NC(C)=O)c2ccccc2S1(=O)=O | inactive | –
27 | O=C(CSc1ncc2c(n1)-c1cc(Cl)ccc1N(Cc1ccccc1F)S2(=O)=O)Nc1cccc(C(F)(F)F)c1 | inactive | –
28 | CC(=O)c1cccc(NC(=O)c2c(C)nn(-c3ccc(F)cc3)c2-n2cccc2)c1 | inactive | –
29 | CNc1oc(-c2ccc(COc3ccc(C)cc3)o2)nc1C#N | inconclusive: 14.1 µM [inhibitor, partial curve, poor fit] | –
30 | COc1cccc(OCC(=O)NN=C2c3ccccc3-c3ccccc32)c1 | inconclusive: 39.8 µM [inhibitor, single point] | –
31 | CCOC(=O)N=Nc1c2ccccc2c2nc3no[nH]c3nc12 | inconclusive: 4.23 µM [inhibitor, full curve, poor fit] | –
32 | CC[n+]1c(/C=C/c2c[nH]c3ccccc23)ccc2cc(C)ccc21 | inconclusive: 14.1 µM [inhibitor, partial curve, poor fit] | –
33 | O=C(Nc1ccc2ccccc2c1)c1ccccc1O | – | inconclusive: -64.4% [inhibitor]
34 | Nc1ccc2cc3[nH]c4cc(N)ccc4c3nc2c1 | inconclusive: 35.5 µM [inhibitor, single point] | –
35 | O=C(Nc1ccc2c(c1)OCO2)C1Cc2c(-c3ccc4c(c3)OCO4)ccnc2O1 (stereo not given) | inconclusive: 20 µM [inhibitor, partial curve, poor fit] | –
36 | CCO[C@@H]1OC(C(=O)N2CCN(Cc3ccc4c(c3)OCO4)CC2)=C[C@H](C2CCCCC2)[C@H]1CCCO | inconclusive: 39.8 µM [inhibitor, single point] | –
37 | Cc1ccc(C(=O)N2CCCC(CCC(=O)N3CCN(c4ccccn4)CC3)C2)cc1 (stereo not given) | inconclusive: 12.6 µM [inhibitor, partial curve, poor fit] | –
38 | COc1ccccc1C(=O)NNC(=O)c1ccc(Br)cc1 | inactive | –
39 | CCN(CC)CCNC(=O)c1nn(-c2ccc(Cl)cc2)c2c1CCc1cc(OC)ccc1-2 | inconclusive: 26.7 µM [inhibitor, single point] | –
40 | O=C(CCS(=O)(=O)c1ccccc1)Nc1nncs1 | inactive | –
41 | O=C(NCc1cccnc1)C1CCN(C(=O)c2ccc(Cl)cc2Cl)CC1 | inactive | –
42 | COc1ccc(C(=O)NCC(c2ccco2)N(C)C)cc1S(=O)(=O)NCc1ccc(Cl)cc1 (stereo not given) | inactive | –
43 | Cc1cccc2c(N)c3c(nc12)CCCC3 (tested in a mixture with another compound) | inconclusive: 29.9 µM [inhibitor, single point] | –
44 | Cc1c(C#N)c(=O)oc2ccc3ccccc3c12 | inconclusive: 14.1 µM [inhibitor, partial curve, poor fit] | –

Row | Compound | Potency | activity change, negative = inhibition
45 | Cc1c(NC(=O)CSc2nc3ccc(Cl)cc3[nH]2)c(=O)n(-c2ccccc2)n1C | inactive | –
46 | Cc1ccc(O)c(NC(=S)NC(=O)c2ccc(-c3ccc(Cl)cc3)o2)c1 | inconclusive: 39.8 µM [inhibitor, single point] | –
47 | O=C(Nc1ccc2c(c1)OCO2)c1cc(-c2ccc(Cl)cc2)on1 | inconclusive: 0.891 µM [inhibitor, full curve, poor fit] | –
48 | CCCCCn1c(-c2cccc(C)c2)nc2ccccc21 | inconclusive: 39.8 µM [inhibitor, single point] | –
49 | COC(=O)c1ccc(CSc2nc3c([nH]c4ccccc43)c(=O)n2-c2cc(C)cc(C)c2)o1 | inactive | –
50 | CCCCCCCCCc1nc2sc3c(c2c(=O)n1NC(=O)c1ccccc1[N+](=O)[O-])CC(C)(C)OC3 | inconclusive: 37.7 µM [inhibitor, single point] | –
51 | COC(=O)/C=C/C(=O)Nc1cccc(C(F)(F)F)c1 | inconclusive: 15.8 µM [inhibitor, partial curve, poor fit] | –
52 | CCCCCn1c(CNC(=O)c2ccc(F)cc2)nc2ccccc21 | inconclusive: 39.8 µM [inhibitor, single point] | –
53 | ON=C1C2CC=C(c3ccccc3)C1CCC2 (stereo not given) | inactive | –
54 | Cc1[nH]n(-c2ccccc2)c(=O)c1/C=N/NC(=O)COc1ccccc1[N+](=O)[O-] | inconclusive: 22.4 µM [inhibitor, partial curve] | –
55 | COc1cc(OC)c(NC(=O)NCc2cccn2Cc2ccccc2)cc1Cl | inconclusive: 39.8 µM [inhibitor, single point] | –
56 | Cc1ccc(S(=O)(=O)N2c3ccccc3OCC2c2ccccc2)cc1 (stereo not given) | inconclusive: 39.8 µM [inhibitor, partial curve, poor fit] | –
57 | O=c1sc(Nc2ccccc2)nc2ccccc12 | inactive | –
58 | CCN(c1ccccc1)S(=O)(=O)c1ccc(C(=O)N(CCCN(C)C)c2nc3c(C)cccc3s2)cc1 | inconclusive: 20 µM [inhibitor, partial curve] | –
59 | CCOC(=O)c1ccc(NC(=O)CCc2c(C)nc3c(c(C)nn3C(C)(C)C)c2C)cc1 | inconclusive: 39.8 µM [inhibitor, single point] | –
60 | CC(C)(C)CC(C)(C)NCC(O)COc1ccc2c(c1)CCC2 (stereo not given) | inconclusive: 25.1 µM [inhibitor, single point] | –
61 | CCOC(=O)c1c(NC(=O)C(=O)N/N=C/c2ccccc2O)sc2c1CCCCC2 | inconclusive: 11.2 µM [inhibitor, partial curve, poor fit] | –
62 | COc1cc(Br)ccc1C1C(C(=O)Nc2ccc(C)cc2C)=C(C)Nc2nnnn21 (stereo not given) | inconclusive: 39.8 µM [inhibitor, single point] | –
63 | Cc1nc2ccc(NC(=O)CS(=O)(=O)c3ccccc3)cc2s1 | inactive | –
64 | OCc1ccc2c(c1)c(-c1ccc3c(c1)OCCO3)c(-c1ccccc1)n2-c1ccccc1 | inconclusive: 31.6 µM [inhibitor, partial curve, poor fit] | –
65 | Cc1[nH]n2c(=O)cc(-c3ccc([N+](=O)[O-])cc3)nc2c1-c1ccccc1 | active: 20 µM | –
